# PubChem BioAssay AID686978 (National Center for Advancing Translational Sciences (NCATS), 2013)
# Several values for one entry are separate records, joined by “and”; a condition that tells them apart may be missing. Identical values can stand only once. Hit rate of the full screen: of about 420,000 compounds, about 64,000 (15%) were called active. Inconclusive results, whose numbers are uncertain, are shown with a selection of clear calls. The call rests on the fitted dose curve; in most records, active means well fitted inhibition curve with a large enough effect; inconclusive means small, poorly fitted or top-dose-only effect; inactive means flat fitted curve, though single readings scatter. Potencies beside an inconclusive call are fits to weak or partial responses and may not hold up.
# Assay: qHTS for Inhibitors of human tyrosyl-DNA phosphodiesterase 1 (TDP1): qHTS in cells in absence of CPT; further: nearly all actives have a fitted effect of over 55% in size
# Details: DT40 Tdp1-/- hTDP1 cells, no CPT, ATP luminescence, 48 h; activity change, negative = growth inhibition: at 46.2 µM (top of the series)
# In short: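 Cells were dispensed at 400 per well, compounds added by pin tool, plates incubated ≥48 hr at 37 °C, then CellTiter-Glo added for 30 min at room temperature before luminescence reading. Line: DT40 Tdp1-/- complemented with hTDP1; camptothecin omitted.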
# On the % scale 0 is the no-effect control and ±100 the full control effect; potency means the concentration at half of the fitted maximal effect; tags describe the fitted curve by direction and shape.
Compound,Potency,"activity change, negative = growth inhibition"
COc1ccc2c(c1)CCc1c(C(=O)Nc3ccn(Cc4ccc(C)cc4)n3)noc1-2,"inconclusive: 7.31 µM [inhibitor, full curve, poor fit]",–
CCc1ccc2cc(C)cc(C)c2n1,inactive,–
Cc1cc2nc(N3CCC(NC(C)c4nc(-c5ccccn5)no4)CC3)nc(C)c2cc1C (stereo not drawn),"inconclusive: 29.1 µM [inhibitor, single point]",–
CC(C)CNC(=O)c1ccc(COc2ccc(Cl)cc2Cl)o1,active: 20.6 µM,–
CCOC(=O)c1ccc(N=c2scc(C)n2CC)cc1,"inconclusive: 29.1 µM [inhibitor, single point]",–
Cc1cc(C(=O)COC(=O)/C=C/c2cccc(Br)c2)c(C)n1C,"inconclusive: 25.9 µM [inhibitor, single point]",–
CCOC(=O)c1[nH]ncc1CN1CCN(Cc2ccc(C)cc2)C(CCO)C1 (stereo not drawn),inactive,–
CCN(CC)c1ccc(C(=O)Nc2ccccc2)cc1[N+](=O)[O-],"inconclusive: 14.6 µM [inhibitor, partial curve]",–
CCNC(=S)N/N=C(\C)c1ccc2c(c1)OCCO2,"inconclusive: 23.1 µM [inhibitor, single point]",–
CC(OC(=O)CCCN=C1NS(=O)(=O)c2ccccc21)C(=O)Nc1ccccc1[N+](=O)[O-] (stereo not drawn),"inconclusive: 23.1 µM [inhibitor, single point]",–
O=C(COC(=O)CCc1nc2ccccc2n1-c1ccccc1)Nc1ccc(N2CCCCC2)cc1,inactive,–
CC1CCN(c2ccc3c(c2)S(=O)(=O)c2cccc(C(=O)NC[C@@H]4CCCO4)c2C3=O)CC1,"inconclusive: 25.9 µM [inhibitor, single point]",–
O=C(Nc1nc2ccccc2s1)c1cccc(S(=O)(=O)N2CCc3ccccc32)c1,active: 10.3 µM,–
CCN(CC)C(=O)Cn1c(=O)n(-c2ccccc2)c(=O)c2sccc21,inactive,–
COC(=O)c1cc2sc(Cl)cc2n1Cc1nc(-c2ccccc2)oc1C,"inconclusive: 16.4 µM [inhibitor, single point]",–
CCCCc1c(-c2ccccc2OC)ncn1CCc1cccc(Cl)c1,active: 20.6 µM,–
Cc1cccc(C)c1NC(=O)C(C1CC1)n1c(=O)c(-c2ccccc2)nc2ccccc21 (stereo not drawn),"inconclusive: 23.1 µM [inhibitor, single point]",–
OC(CCCN1CCCCC1)(c1ccccc1)c1ccccc1,"inconclusive: 26.6 µM [inhibitor, partial curve] and inconclusive: 8.2 µM [inhibitor, partial curve]",–
CCN(CC)CCOC(=O)C(c1ccccc1)c1ccccc1,"inconclusive: 15 µM [inhibitor, single point]",–
CCn1c2ccccc2c2nn(C)c(=N)nc21,active: 18.4 µM,–
COc1ccccc1-c1c(C)nn2c(C)c(C(C)=O)cnc12,–,inconclusive: -31.3% [inhibitor]
Cc1csc2nc(COC(=O)c3cccc(NC(=O)COc4ccccc4Cl)c3)cc(=O)n12,"inconclusive: 23.1 µM [inhibitor, single point]",–
CCN1CCN(C(=O)C2CCN(S(=O)(=O)c3cc(Cl)ccc3Cl)CC2)CC1,inactive,–

Compound,Potency,"activity change, negative = growth inhibition"
C/C(=N\NC(=O)c1cccc(N/N=C(\C)c2ccco2)c1)c1ccco1,"inconclusive: 23.1 µM [inhibitor, single point]",–
COCCOc1cc(-n2cccc2)c(Cl)cc1Cl,inactive,–
CCc1cccc(NC(=O)Cc2nc(-c3ccc(OC)cc3)no2)c1,"inconclusive: 11.6 µM [inhibitor, partial curve]",–
CC(Cc1cccs1)N(Cc1ccc(Cl)cc1)C(=O)c1ccncc1 (stereo not drawn),"inconclusive: 32.6 µM [inhibitor, single point]",–
CC1CCN(C(=O)c2ccc3c(c2NCCO)C(=O)c2ccccc2C3=O)CC1,active: 18.4 µM,–
CCN1CCN(c2ccc(S(=O)(=O)N3CCCCC3)cc2NC(=O)/C=C/c2ccc(F)cc2)CC1,"inconclusive: 25.9 µM [inhibitor, single point]",–
CC(=O)NC1(C(Cl)(Cl)Cl)Oc2ccccc2O1,inactive,–
COc1ccccc1CNC(=O)C(=O)NCC1OCCCN1S(=O)(=O)c1cccs1 (stereo not drawn),inactive,–
O=C1N=C(N2CCCC2)S/C1=C\c1cccc(Br)c1,"inconclusive: 29.1 µM [inhibitor, single point]",–
COc1ccc(CC(=O)NCCS(=O)(=O)N2CCN(c3ccccc3OC)CC2)cc1,"inconclusive: 20.6 µM [inhibitor, single point]",–
CSc1nsc(SC)c1NC(=O)Nc1ccccn1,"inconclusive: 23.1 µM [inhibitor, single point]",–
COC(=O)c1ccc(COc2ccccc2/C=N/NS(=O)(=O)c2ccc(C)cc2)cc1,"inconclusive: 18.4 µM [inhibitor, single point]",–
CC(=O)NCCNC(=O)Cn1nnc(-c2ccccc2)c1COc1ccc2ccccc2c1,"inconclusive: 18.4 µM [inhibitor, single point]",–
O=C(N/N=C/C=C/c1ccco1)/C(=C/c1ccccc1)NC(=O)c1ccccc1,"inconclusive: 29.1 µM [inhibitor, single point]",–
C=C1C(=O)N(C)CCC1C(CC)C(=O)OC (stereo not drawn),inactive,–
COc1ccc(-c2cn3c(n2)sc2cc(C(=O)NC(C)C45CC6CC(CC(C6)C4)C5)ccc23)cc1 (stereo not drawn),–,inconclusive: -30.9% [inhibitor]
CCCCOc1cccc(C2/C(=C(/O)c3ccc4c(c3)CC(C)O4)C(=O)C(=O)N2CCN2CCOCC2)c1 (stereo not drawn),inactive,–
Cc1ccc(N2C(=O)CC(N(CCc3ccccc3)C(=S)Nc3ccc(N(C)C)cc3)C2=O)cc1 (stereo not drawn),"inconclusive: 23.1 µM [inhibitor, single point]",–
O=C(NC(=O)c1ccccc1Cl)Nc1ccc(-c2cnco2)cc1,–,inconclusive: -20.2% [inhibitor]
CC1(C)CN(c2ccccc2)N(C(=O)c2ccc(F)cc2)C1=O,"inconclusive: 23.1 µM [inhibitor, single point]",–
CC(C)(C)CC(=O)Nc1cc2c3c(c1)CC(=O)N3CCC2,inactive,–
COc1ccc(CNC(=O)CC2N=C3c4ccccc4N=C(SCC(=O)Nc4ccc(C(C)C)cc4)N3C2=O)cc1 (stereo not drawn),inactive,–
COc1ccc2c(OC)cc(-c3ccccc3)nc2c1,"inconclusive: 29.1 µM [inhibitor, single point]",–

Compound,Potency,"activity change, negative = growth inhibition"
CCOC(=O)C1=C(CSc2nc(-c3ccccc3)ccc2C#N)OC(N)=C(C#N)C1c1ccc(OC)cc1 (stereo not drawn),active: 9.2 µM,–
CCOc1ccc(-c2c(C(=O)N/N=C/c3ccc(C)s3)nnn2-c2nonc2N)cc1,"inconclusive: 29.1 µM [inhibitor, single point]",–
O=C(Nc1ccc(N2CCOCC2)c(Cl)c1)c1cc(F)c(F)cc1Cl,"inconclusive: 20.6 µM [inhibitor, single point]",–
CC(C)(C)c1ccc(C(=O)N2CCN(C(=O)C3CCCCC3)CC2)cc1,"inconclusive: 23.1 µM [inhibitor, single point]",–
O=C(NCc1cccs1)C1CCCN(S(=O)(=O)c2cccc3cccnc23)C1 (stereo not drawn),"inconclusive: 32.6 µM [inhibitor, partial curve]",–
COc1ccc(CCNC2CC(=O)N(CCc3ccccc3)C2=O)cc1OC (stereo not drawn),inactive,–
c1ccc(-c2nc3c(ccc4ccccc43)[nH]2)nc1,active: 23.1 µM,–
COc1cccc(CNC(=O)CCC2CCCN(C(=O)c3cccc(Cl)c3)C2)c1 (stereo not drawn),"inconclusive: 14.6 µM [inhibitor, partial curve, poor fit]",–
Cc1ccc(S(=O)(=O)c2nc(-c3cccc(Br)c3)oc2N2CCCCCC2)cc1,"inconclusive: 29.1 µM [inhibitor, single point]",–
COCc1cc(C)nc2sc3c(c12)NC(c1ccccc1C(=O)O)N(c1cccc(C(F)(F)F)c1)C3=O (stereo not drawn),"inconclusive: 29.1 µM [inhibitor, single point]",–
S=c1[nH]nc(-c2cccnc2)n1/N=C/C=C/c1ccccc1,inactive,–
Cc1csc2sc(-c3ccnc(SCC(=O)NCc4ccccc4)n3)c(C)c12,active: 0.731 µM,–
Cc1cccc(C(=O)Nc2c(C(=O)N3CCN(c4ccc(F)cc4)CC3)oc3ccccc23)c1,"inconclusive: 18.4 µM [inhibitor, partial curve, poor fit]",–
CCOC(=O)C1CCN(S(=O)(=O)c2cc3c4c(c2)C(C)C(=O)N4CCC3)CC1 (stereo not drawn),inactive,–
CCc1ccc2[nH]c(=O)c(CN(Cc3ccccc3OC)Cc3nnnn3Cc3ccco3)cc2c1,"inconclusive: 16.4 µM [inhibitor, single point]",–
CCOC(=O)N1CCN(C(=O)CS(=O)(=O)c2cn(Cc3ccc(F)cc3)c3ccccc23)CC1,"inconclusive: 29.1 µM [inhibitor, single point]",–
Cc1ccc(Oc2ccc(C(F)(F)F)cc2[N+](=O)[O-])c([N+](=O)[O-])n1,inactive,–
O=C(COC(=O)c1cnccn1)c1ccc(Cl)cc1,inactive,–
O=C(Nc1cc(S(=O)(=O)N2CCOCC2)ccc1N1CCCCC1)c1cc(-c2ccccn2)nc2ccccc12,"inconclusive: 18.4 µM [inhibitor, single point]",–
N#C/C(=C\c1cccn1-c1ccccc1)C(=O)NC1CCCCC1,"inconclusive: 4.11 µM [inhibitor, single point]",–
COc1cccc(N2CCN(C(=O)CCSCc3ccccc3F)CC2)c1,"inconclusive: 18.4 µM [inhibitor, single point] and inconclusive: 29.1 µM [inhibitor, single point]",–
O=C1C(=O)N(CCCN2CCOCC2)C(c2ccc([N+](=O)[O-])cc2)/C1=C(/O)c1ccc2c(c1)OCO2 (stereo not drawn),inactive,–
